Test results taken from PubChem BioAssay (NCATS).
Where “and” joins values, the source holds several entries; their conditions need not be identical. Identical values can stand only once. The inconclusive results got no clear call from the source; some entries with a clear call stand among them for comparison. For some assays here: A potency beside an inconclusive call is a rough fit, not a confirmed value. Calls of active or inactive are those of the source. Unless noted, calls follow the shape of the dose curve; as a rule, active = well fitted curve in the direction sought with a large enough effect; inconclusive = small, poorly fitted or top-dose-only effect, or another doubt; inactive = no such curve, though single readings can be large; an effect the other way counts as inactive or inconclusive.

Tests used:
[1] = Confirmatory qHTS for small molecule stabilizers of the endoplasmic reticulum resident proteome: Secreted ER Calcium Modulated Protein (SERCaMP) assay (AID 1508628); settings: SERCaMP secreted luciferase ER calcium/proteostasis reporter; series mostly up to 76.3 µM; also: nearly all actives have a fitted effect of over 40% in size; also: potency is read from the fitted curve at half-maximal effect
Method in brief: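 We seeded SH-SY5Y-GLuc-SERCaMP cells, added compounds (three concentrations in the primary run, eleven up to 76.6 uM in confirmation), incubated 16 h, depleted ER calcium with thapsigargin, and read luciferase 4 h later.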

[2] = Cell Viability qHTS for small molecule stabilizers of the endoplasmic reticulum resident proteome (AID 1508629); settings: cell viability counter-screen, 100 nM thapsigargin for final 4 h;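 also: compound exposure about 46 h in total before the viability read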; also: potency is read from the fitted curve at half-maximal effect;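 as to max response: human SH-SY5Y neuroblastoma cells carrying the GLuc-SERCaMP reporter; % is scaled to controls: 0 for no effect and ±100 for the full control effect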
[3] = Primary qHTS for small molecule stabilizers of the endoplasmic reticulum resident proteome: Secreted ER Calcium Modulated Protein (SERCaMP) assay (AID 1508630); settings: SH-SY5Y GLuc-SERCaMP (Gaussia luciferase released on ER calcium loss) secretion, thapsigargin, luminescence; activity change, negative = inhibition: at 38.4 µM (top of the series); also: potency is read from the fitted curve at half-maximal effect
Method in brief: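 GLuc-SERCaMP-expressing SH-SY5Y cells, pretreated 16 h with compound, are challenged with thapsigargin to empty ER calcium stores; after 4 h, coelenterazine is added directly to the medium and luminescence is imaged.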

[4] = A High-Content qHTS Against Drug Library for the Identification of Small Molecules that Inhibit DYT1 Early Onset Primary Dystonia-Associated Cell Pathology (AID 1645839; calls by dose curve; also: potency is read from the fitted curve at half-maximal effect); settings: HEK293 Flp-In EGFP-delE TorsinA, punctate imaging, 48 h; series mostly up to 46.1 µM
Method in brief: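 Flp-In T-REx 293 cells with tetracycline-inducible EGFP-delE hTOR1A (WT EGFP-hTOR1A as reference), 800 cells/well; compound added with tetracycline, 48 h at 37 C. Fixed, permeabilized cells imaged; %pathology (punctate TorsinA) primary, cell count counterscreen.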

[5] = Primary qHTS for inhibitors of nuclear receptor binding SET domain protein 2 (NSD2) in an isogenic RCH-ACV NSD2 p.E1099K mutant (9B) (AID 1645876); settings: RCH-ACV NSD2 E1099K (9B) viability, CellTiter-Glo, 72 h; series mostly up to 44.9 µM; also: potency is read from the fitted curve at half-maximal effect; nearly all actives have a fitted effect of over 70% in size
Papain (Carica papaya) = Papain (Carica papaya) (UniProt P00784); assay: Primary qHTS assay for inhibitors of the protease papain (AID 1645873); settings: papain Z-FR-AMC cleavage, AMC fluorescence; series mostly up to 49.8 µM;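 also: papain turnover of Z-FR-AMC read as the AMC fluorescence gain over 10 min; potency is read from the fitted curve at half-maximal effect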
[6] = Primary qHTS for inhibitors of nuclear receptor binding SET domain protein 2 (NSD2) in an RCH-ACV wild type WT cells (2C) (AID 1645877); settings: RCH-ACV (leukaemia line) NSD2 WT (2C) viability, CellTiter-Glo, 72 h; activity change, negative = cell killing: at 44.9 µM (top of the series) unless noted; series mostly up to 44.9 µM; also: nearly all actives have a fitted effect of over 70% in size; also: potency is read from the fitted curve at half-maximal effect; as to activity change, negative = cell killing: % is scaled to controls: 0 for no effect and ±100 for the full control effect
[7] = molecular target: Calcium and integrin-binding protein 1 (Homo sapiens) (UniProt Q99828); assay: Primary qHTS for Identification of Calcium Integrin Binding Protein 1 (CIB1) Competitor (AID 1508620); settings: CIB1-GST / FITC-alphaIIb peptide fluorescence polarization; series mostly up to 114 µM;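 also: GST tagged CIB1 binding a fluorescein labelled alphaIIb integrin peptide tracer; top concentration of the series differs between compounds; % is scaled to controls: 0 for no effect and ±100 for the full control effect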
Method in brief: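 Fluorescence polarization competition: GST-tagged CIB1 (1 uM final) preincubated with compound 15 min at room temperature, then FITC-labelled alphaIIb peptide (100 nM final) added. After 15 min at room temperature, polarization read at Ex 480/Em 540.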

[8] = molecular target: Cytochrome P450 2C9 (Homo sapiens) (UniProt P11712); assay: Cytochrome P450 family 2 subfamily C member 9 (CYP2C9) small molecule antagonists: luciferase biochemical (cell-free) qHTS assay (AID 1645842; active = well fitted curve in the direction sought with a large enough effect in the repeat runs; inconclusive = weak or mixed curves; inactive = no such curve, though single readings can be large; an effect the other way counts as inactive or inconclusive; also: potency is read from the fitted curve at half-maximal effect; nearly all actives have a fitted effect of over 55% in size); settings: P450-Glo CYP2C9 enzyme assay, luciferin luminescence; series mostly up to 57.4 µM
Method in brief: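 Luminescence, after 20 min with luciferin detection reagent, reflected CYP2C9 turnover during a 1 h NADPH-driven reaction at 37C. Enzyme-substrate mix contained 0.4% bovine serum albumin and was preincubated with compound 10 min at room temperature.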
Tags tell the direction and shape of the fitted curve.

Chain of UniProt Q99828 (Q99828 whole entry, looked up): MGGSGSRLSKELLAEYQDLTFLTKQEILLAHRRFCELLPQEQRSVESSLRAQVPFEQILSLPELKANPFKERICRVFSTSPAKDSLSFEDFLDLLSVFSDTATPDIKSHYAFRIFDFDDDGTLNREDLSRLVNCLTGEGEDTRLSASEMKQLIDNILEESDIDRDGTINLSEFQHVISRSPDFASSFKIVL
Chain of UniProt P00784 (P00784 whole entry, looked up, the tested form may be a part): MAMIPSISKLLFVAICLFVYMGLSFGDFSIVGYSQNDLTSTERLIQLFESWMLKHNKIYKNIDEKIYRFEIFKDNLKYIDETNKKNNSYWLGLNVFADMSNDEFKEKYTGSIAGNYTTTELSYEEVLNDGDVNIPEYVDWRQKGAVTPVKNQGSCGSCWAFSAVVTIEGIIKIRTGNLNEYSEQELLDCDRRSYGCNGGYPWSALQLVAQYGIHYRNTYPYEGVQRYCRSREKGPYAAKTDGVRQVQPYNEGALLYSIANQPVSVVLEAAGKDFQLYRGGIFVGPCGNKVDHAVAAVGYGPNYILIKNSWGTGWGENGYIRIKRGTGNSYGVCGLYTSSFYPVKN
Chain of UniProt P11712 (P11712 whole entry, looked up): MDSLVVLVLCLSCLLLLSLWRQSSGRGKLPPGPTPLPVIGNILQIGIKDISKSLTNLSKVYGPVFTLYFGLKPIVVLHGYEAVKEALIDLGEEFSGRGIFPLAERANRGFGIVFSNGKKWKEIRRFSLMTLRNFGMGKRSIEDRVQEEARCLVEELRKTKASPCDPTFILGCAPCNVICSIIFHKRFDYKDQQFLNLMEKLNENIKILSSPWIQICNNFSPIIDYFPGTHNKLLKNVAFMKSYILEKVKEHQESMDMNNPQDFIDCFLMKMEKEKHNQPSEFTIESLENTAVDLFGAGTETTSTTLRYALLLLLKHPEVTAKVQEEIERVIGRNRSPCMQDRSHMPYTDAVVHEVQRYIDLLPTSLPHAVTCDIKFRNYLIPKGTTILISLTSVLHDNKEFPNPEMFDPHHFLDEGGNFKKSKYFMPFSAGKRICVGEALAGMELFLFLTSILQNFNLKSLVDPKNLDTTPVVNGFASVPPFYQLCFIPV

Q: Which Potency [1] does the source give for CSc1ccc2c(c1)N(CCC1CCCCN1C)c1ccccc1S2 (configuration not stated) here?
A: inconclusive: 10 µM [inhibitor, full curve]

Q: What about the Potency [2] of the same molecule?
A: inconclusive: 14.1 µM [cytotoxic, full curve]

Q: And the Potency [3]?
A: inconclusive: 11.2 µM [inhibitor, single point] and inconclusive: 8.91 µM [inhibitor, partial curve, poor fit] and inconclusive: 28.2 µM [inhibitor, single point]

Q: And the Potency [4]?
A: inconclusive: 17.8 µM [inhibitor, partial curve, poor fit]

Q: Which results are given for CN1CCCN(C(c2ccccc2)c2ccc(Cl)cc2)CC1 (configuration not stated)?
A: Potency [2]: active: 25.1 µM; Potency [3]: inconclusive: 10 µM [inhibitor, partial curve, poor fit]; Potency [4]: inconclusive: 22.4 µM [inhibitor, partial curve, poor fit]; Potency [5]: inconclusive: 23.7 µM [inhibitor, single point]

Q: What does the source list for CCN(CC)CCCC(C)Nc1ccnc2cc(Cl)ccc12 (configuration not stated)?
A: Potency [1]: inactive; max response [2]: inactive: -9.95%; Potency [3]: inconclusive: 3.16 µM [inhibitor, partial curve, poor fit] and inconclusive: 22.4 µM [inhibitor, single point] and inconclusive: 25.1 µM [inhibitor, partial curve, poor fit]; Potency (Papain (Carica papaya)): inconclusive: 17.8 µM [inhibitor, single point]; Potency [6]: inactive

Q: Which Potency [7] does the source give for CCN(CC)CCOCCOC(=O)C(CC)(CC)c1ccccc1 here?
A: inactive

Q: What about the Potency [8] of the same molecule?
A: inconclusive: 23.9 µM [inhibitor, partial curve, poor fit]

Q: And the Potency [5]?
A: inconclusive: 20.5 µM [inhibitor, single point]

Q: And the Potency [6]?
A: inconclusive: 18.3 µM [inhibitor, single point]
